Experimental data: PubChem BioAssay AID1963866 (Molecular Pharmacology Branch, DTP, NCI, 2024)
The source holds more than one record for some entries. They are shown here; other results are not. An entry can have further records. Values that stand side by side are repeated measurements in other runs, samples, wells, individuals or studies. Additions like (4×) count equal records among those shown. A date in brackets names the month of the test.

Test system: PDC KRAS tumor spheroids with HUVEC/MSC, viability
Assay: Anticancer human tumor 349418-098-R-PDC patient-derived lung adenocarcinoma cell line growth inhibition [KRAS2]
Conditions: for IC50: compound alone; for viability, T/C: stronger effect = lower value
From the text: Multicellular complex tumor spheroid response to RAS pathway inhibitors in combination with a targeted agents in patient-derived cell lines with oncogenic KRAS variants from multiple cancer types
A high-throughput screen of multi-cell type tumor spheroids was designed to identify active combinations of targeted small molecules and KRAS pathway inhibitors. Complex spheroids include a stromal component modeled by human endothelial cells (HUVEC) and fibroblasts modeled by human mesenchymal stem cells (MSCs). The concentration ranges selected for each drug and investigational agent were based upon clinically achievable concentrations if the clinical Cmax of the agent was known.
Compounds. The drugs and investigational agents: BI-3406 (NSC825286), BAY-293 (NSC824723), batoprotafib (TNO155; NSC825523), sotorasib (AMG 510; NSC818433), MRTX1257 (NSC819558), elimusertib (BAY 1895344; NSC800525), molibresib (GSK525762; NSC774829), temuterkib (LY3214996; NSC803410), venetoclax (NSC766270), alisertib (NSC759677), olaparib (NSC753686), talazoparib (NSC767125), erdafitinib (NSC781556), ipatasertib (NSC767898), cabozantinib (NSC761068), nintedanib (NSC756659), abemaciclib (NSC768073), docetaxel (NSC628503), trametinib (NSC758246), and sapanisertib (NSC764658) were obtained from the National Cancer Institute (NCI) Developmental Therapeutics Program Chemical Repository. The FDA-approved anticancer drug set is available from the Developmental Therapeutics Program. […] The stock solutions were prepared in dimethyl sulfoxide (DMSO, Sigma-Aldrich, St. Louis, MO, cat. D2650) at 800-fold the tested concentration and stored at -70 degrees C prior to their use. All drugs and investigational agents were tested over a range starting from a high concentration at or near the clinical Cmax and decreasing in half-log increments. If the clinical Cmax for an agent had not been determined, the highest concentration tested was 10 microM.
Cell Culture. All cells were maintained in an incubator at 37 degrees C and 5% CO2 with 95% humidity. The PDC lines were cultured according to standard operating procedures established by the NCI PDMR (https://pdmr.cancer.gov/sops/default.htm). Briefly, all PDCs were thawed and cultured in Matrigel-coated flasks prepared with a working solution of 1X Ham's F-12 nutrient mix, without supplementation (Invitrogen, Waltham, MA, cat. 11765054), 100 U/mL penicillin-streptomycin (Invitrogen, cat. 15140122), and 2.5% Matrigel (Corning Inc., Corning, NY, cat. 354248) for the first three passages. All PDCs were cultured in complete DMEM/F-12 media containing advanced DMEM/F-12 (Invitrogen, cat. 12634028), 4.9% defined fetal bovine serum, heat inactivated (HyClone Laboratories Inc., Logan, UT, cat. SH30070.03HI), 389 ng/mL hydrocortisone (Sigma-Aldrich, cat. H4001), 9.7 ng/mL human EGF recombinant protein (Invitrogen, cat. PHG0313), 23.4 microg/mL adenine (Sigma-Aldrich, cat. A2786), 97.3 U/mL penicillin-streptomycin (Invitrogen, cat. 15140122), 1.9 mM L-glutamine (Invitrogen, cat. 25030081), and 9.7 microM Y-27632 dihydrochloride (Tocris Bioscience, Bristol, United Kingdom, cat. 1254). The PDCs were cultured in complete DMEM/F12 media without 9.7 microM Y-27632 dihydrochloride for at least two passages prior to the screen. The established cell line HOP-62 was cultured in RPMI 1640 medium, HEPES (Invitrogen, cat. 22400105) with 10% defined fetal bovine serum (HyClone Laboratories Inc., cat. SH30070.03) and 2 mM L-glutamine (Invitrogen, cat. 25030081). The pooled donor HUVEC were cultured in endothelial cell growth medium 2 (PromoCell, Heidelberg, Germany, cat. C-22011) and the hMSC were cultured in mesenchymal stem cell growth medium 2 (PromoCell, cat. C-28009). For all experiments, HUVEC and hMSC were used at passages </=5, while the malignant cell lines were used at passages </=15. […]
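Note: spheroids exposed to compounds for seven days before readout.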

Row | SMILES | viability, T/C (compound alone 0.0316 µM) | viability, T/C (compound alone 0.1 µM) | viability, T/C (compound alone 0.316 µM) | viability, T/C (compound alone 1 µM) | viability, T/C (compound alone 3.16 µM) | also measured
1 | COC(=O)c1ccc2c(C(=Nc3ccc(N(C)C(=O)CN4CCN(C)CC4)cc3)c3ccccc3)c(O)[nH]c2c1 | 53.7, 63.8, 97.5, 107, 110% | 59.5, 38.4, 74.1, 76.1, 85.6% | 63.4, 42.7, 73.2, 79.4, 95.8% | 44.8, 32, 43.8, 65.2, 63.7% |  | IC50: 722 nM, 81.5 nM, 763 nM, 1.28 µM, 1.49 µM
2 | CC1OCC2(CCN(c3cnc(Sc4ccnc(N)c4Cl)c(N)n3)CC2)C1N (stereo unspecified) |  | 83, 89.8, 103, 92, 88.5, 119, 102, 105, 97, 99.6, 104, 99.2, 76.7, 80, 112, 121, 84.7, 114, 79.9% | 93.5, 92.3, 97 (2×), 105, 107, 121, 101 (2×), 92.2, 95.5, 98.3, 83.9, 84.3, 87.3, 96.7, 102, 110, 93.8% | 96.1, 81.5, 109, 80.2, 108, 107, 97, 99.5, 91.3, 96.9, 103 (2×), 97.4, 105 (2×), 89.3, 92.4, 116, 94.7% | 28.5, 63.3, 96.8, 83.1 (2×), 82.1, 107, 98.4, 86.7, 87.8, 93.7, 87.3, 98.6, 95.5, 87.5, 114, 100, 86.2, 94.4, 94.9% | viability, T/C (compound alone 10 µM): 81.5 (2×), 84.4, 94.4, 71.1, 86, 98, 80, 79.6, 70.1, 82.4, 94.6, 99.7, 68, 80.6, 94.5, 104, 84.5, 91.7, 85.2%
3 | C=CC(=O)N1CCN(c2nc(OCC3CCCN3C)nc3c2CCN(c2cccc4cccc(C)c24)C3)CC1CC#N (stereo unspecified) | 110, 97.6, 102 (2×), 68.8, 104, 91, 109, 99.8, 92.2, 97.9, 103, 112, 82.7, 96.2, 91.9, 95.4% | 125, 101 (2×), 80.1, 98.7, 115, 106, 97, 107, 102, 86.9, 92.7, 103, 98, 97.5, 89.5, 110% | 114, 82.8, 74.5, 50.2, 116, 104 (2×), 58.1, 110, 85.3, 92.4, 85.7, 108, 79, 95.4, 90.6, 90.1% | 104, 90.5, 50.2, 32.6, 90.6, 77.5 (2×), 92.3, 74.7, 80.2, 76.4, 69.3, 73.5, 64.2, 66.3, 63.2, 65.2% | 104, 0.14 (2×), 0.1 (2×), 0.24, 0.09, 0.18, 0.15, 0.26, 0.27, 0.13, 0.19, 1.71, 0.12% | IC50 (run of 07/12/2021): 468 nM and > 3.16 µM, 1.68 µM, 890 nM, 1.5 µM [2021-07]
4 | COc1cc2nc(C)nc(NC(C)c3cc(N)cc(C(F)(F)F)c3)c2cc1OC1CCOC1 (stereo unspecified) |  | 74, 91.1, 84.2, 85.3, 99.5, 105, 101, 127, 102 (2×), 93.6, 100, 95.7, 7.97, 92.8, 113% | 77.5, 80.2, 88.8, 106, 108, 97.3 (2×), 101 (2×), 112, 95.4, 99.9, 94.8, 65.8, 99.5, 95.8% | 91.6, 101 (4×), 99.5, 83.6, 109, 87.3, 123, 96.5, 86.1, 95.2, 90.6, 162, 97.4% | 49.5, 64.4, 80.5, 82.5, 90.5, 93.6, 87.5, 120, 89.9, 87.9, 87.2, 71.6, 88.4, 135, 81.8, 85.5% | viability, T/C (compound alone 10 µM): 57.2, 75.2, 99.4, 31, 20.1, 17.2, 30.5, 60.6, 39, 29.2, 41, 21.6, 17.9, 35.9, 30.7, 32.6%; IC50 (run of 07/12/2021): > 10 µM, 6.53 µM, 6.04 µM, 6.11 µM; IC50 (run of 07/19/2021): 6.64 µM, > 10 µM, 7.79 µM, 6.67 µM, 8 µM; IC50 (run of 07/26/2021): 5.2 µM, 5.9 µM, < 100 nM, 6.47 µM, 6.78 µM
5 | CNCc1ccccc1-c1csc(C(C)Nc2nc(C)nc3cc(OC)c(OC)cc23)c1 (stereo unspecified) |  | 114, 102 (2×), 107, 96.5, 125, 126, 97.8, 115, 99, 101, 99.7 (2×), 92.4, 119, 96.4, 86.9% | 114, 104, 80.2, 70.4, 101, 95.1, 99.7, 115, 100, 98.5, 94.4, 108, 124, 113, 96.2, 92.9, 102% | 111, 98.4, 113, 75.1, 78.5, 98.6, 101, 91.9, 80.6, 84.6, 81.1, 40.3, 54.9, 58.3, 54, 31.9, 28.4% | 110, 88, 0.17, 0.12, 0.16, 0.1, 0.09 (2×), 0.08 (2×), 0.07, 0.28, 0.05, 0.06% | IC50 (run of 07/12/2021): 1.47 µM and 1.77 µM and 6.01, 5.2, 1.78, 1.53 µM [2021-07]
6 | CN(C)C/C=C/C(=O)Nc1cc2c(Nc3ccc(F)c(Cl)c3)ncnc2cc1O[C@H]1CCOC1 |  |  |  |  |  | viability, T/C (compound alone 0.000316 µM): 92.6, 99.4, 106, 80.5, 102%; viability, T/C (compound alone 0.00316 µM): 84.6, 102, 108, 98.8, 119%; viability, T/C (compound alone 0.01 µM): 87.8, 101, 106, 91.2, 114%
7 | CC1COCCN1c1cc(-c2ccnn2C)c2ccnc(-c3ccn[nH]3)c2n1 (stereo unspecified) | 44.8, 44.3, 61.1, 6.57, 32.1% |  |  |  |  | IC50: 28.6 nM, 28.2 nM, 41.3 nM, < 10 nM, 25.2 nM; viability, T/C (compound alone 0.01 µM): 105, 103, 107, 9.53, 121%
8 | COc1cc(Nc2ncc3c(n2)-c2ccc(Cl)cc2C(c2c(F)cccc2OC)=NC3)ccc1C(=O)O | 14.2, 46.7, 47.3, 58.1, 53% |  |  |  |  | 
9 | CCNC(=O)CC1N=C(c2ccc(Cl)cc2)c2cc(OC)ccc2-n2c(C)nnc21 (stereo unspecified) | 79.6, 92.9, 99.3, 78.9, 72.3% |  |  |  |  | 
10 | COc1cc2nccc(Oc3ccc(NC(=O)C4(C(=O)Nc5ccc(F)cc5)CC4)cc3)c2cc1OC |  |  |  | 82.2, 80.2, 87.6, 12.8, 95.2% |  | viability, T/C (compound alone 10 µM): 22.1, 19, 18.2, 107, 25.2%
11 | C=CC(=O)N1CCN(c2nc(=O)n(-c3c(C)ccnc3C(C)C)c3nc(-c4c(O)cccc4F)c(F)cc23)C(C)C1 (stereo unspecified) |  | 119, 94.6, 100 (2×), 96.5, 116, 133, 102, 96.6, 97.7 (2×), 99.3, 109, 81.5, 105, 107, 82.5% | 119, 98, 99, 97.6, 124, 15.2, 99.8, 91.3, 93.8, 92.3, 83.3, 108, 98.8, 95.8, 87, 86.4, 96.4% | 101, 98.4, 85.1, 79, 114, 69.7, 96.2, 70.4, 79.3, 83, 82, 88.7, 90.5, 92.7, 78.4, 103, 93.1% | 85.4, 68.8, 79.1, 53.9, 91.5, 50.4, 70.2, 53.2, 63.7, 66.5, 54.9, 69.9, 73.9, 74, 67.6, 61.2, 71.6% | IC50 (run of 07/12/2021): 8.7 µM, 6.45 µM, 6.44 µM, 3.79 µM, 9.5 µM, 288 nM
12 | CCN1CCN(Cc2ccc(Nc3ncc(F)c(-c4cc(F)c5nc(C)n(C(C)C)c5c4)n3)nc2)CC1 |  |  |  |  |  | IC50: 6.97 nM, < 3.16 nM, 4.87 nM, 5.04 nM, 5.76 nM
13 | COc1cc(OC)cc(N(CCNC(C)C)c2ccc3ncc(-c4cnn(C)c4)nc3c2)c1 |  |  | 94.5, 80.1, 70.2, 104% |  |  | 
14 | O=C(c1cc(Cc2n[nH]c(=O)c3ccccc23)ccc1F)N1CCN(C(=O)C2CC2)CC1 |  |  | 53.1, 43.7, 77.1, 94.3, 75% | 29.7, 30.4, 88.6, 81.1, 72% | 18.5, 19.6, 63.4, 60.1, 43.4% | IC50: 405 nM, 283 nM, 5.03 µM, 4.63 µM, 2.92 µM; viability, T/C (compound alone 10 µM): 10.9, 12.8, 31.7, 30.7, 43.9%
